Source: PMC4344327, “Region-Specific Activation of oskar mRNA Translation by Inhibition of Bruno-Mediated Repression” (PLoS Genetics, 2015)
No constants are given. Whether binding was seen depends on the method and setting. Some results given as binding are weak or reduced against the parent protein; the word gives no strength. For part of these data: Tags and fused reporters may be left off the sequences shown.

T1: GST::Cup577–947 (Drosophila) (UniProt Q9VMA3)
T1 sequence: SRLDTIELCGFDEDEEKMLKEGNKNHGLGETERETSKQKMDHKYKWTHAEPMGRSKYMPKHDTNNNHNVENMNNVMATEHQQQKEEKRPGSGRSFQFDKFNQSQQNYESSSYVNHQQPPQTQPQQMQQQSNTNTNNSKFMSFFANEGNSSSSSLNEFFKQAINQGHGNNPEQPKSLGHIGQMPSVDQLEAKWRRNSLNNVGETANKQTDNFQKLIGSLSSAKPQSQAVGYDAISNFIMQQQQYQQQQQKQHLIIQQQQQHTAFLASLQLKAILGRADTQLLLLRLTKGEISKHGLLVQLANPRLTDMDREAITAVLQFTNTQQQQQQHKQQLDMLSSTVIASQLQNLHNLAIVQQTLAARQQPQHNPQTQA

B1: His6::Bru (full-length Bruno, Bru+) (natural protein, Drosophila, UniProt O02374 1-604, looked up)
chain: MFTSRASFLANRRMIFDFSEKNNDIYLDAFGMSDKSSSATNSLPNSPIHSNNNNPSLLNNNNNNSNGTSSNNSLNVGNNNSNPSLGGTNSNALVSVGSNGIMSAAGLVNNNNNPCSANRNVVAMVDDDACFRLDTDATVTYGEKEPDPDNIKMFVGQVPKSMDESQLREMFEEYGAVHSINVLRDKATGISKGCCFVTFYTRRAALKAQDALHNVKTLNGMYHPIQMKPADSENRNERKLFVGMLNKKLNENDVRKLFEVHGAIEECTVLRDQNGQSKGCAFVTFATKHAAISAIKVTLSQNKIMEGCTSPLVVKFADTQKEKEQKKIQQIQANLWNLASNINIPLGQTATSVTTPILPNPPQQPSPVLGADAITPASIQLLQQLQAVGLQHQLLQALTGLGAQQSSSATDTSAVAAAGLLTPMTVQNLAAIAAMTQPSLSNAAAAAARATSPGSAQLTNTAALLWSDPNPMASAYMSTAAGLPQFGSASALSTSPLASVALSAAAAAAAGKQIEGPEGCNLFIYHLPQEFTDTDLASTFLPFGNVISAKVFIDKQTSLSKCFGFVSFDNPDSAQVAIKAMNGFQVGTKRLKVQLKKPKDSKPY
notes: Bruno (Bru; encoded by the aret gene), Drosophila; full-length Bru in pET-15b; Vector pET-15b; The tethered transgene proteins carry RRM2/RRM3 point mutations; source: E. coli, purified (Ni-NTA); not shown: His6, N-terminal, kept
B2: His6::Bru Δ334–416 (natural protein, Drosophila, UniProt O02374 1-604, looked up)
chain: MFTSRASFLANRRMIFDFSEKNNDIYLDAFGMSDKSSSATNSLPNSPIHSNNNNPSLLNNNNNNSNGTSSNNSLNVGNNNSNPSLGGTNSNALVSVGSNGIMSAAGLVNNNNNPCSANRNVVAMVDDDACFRLDTDATVTYGEKEPDPDNIKMFVGQVPKSMDESQLREMFEEYGAVHSINVLRDKATGISKGCCFVTFYTRRAALKAQDALHNVKTLNGMYHPIQMKPADSENRNERKLFVGMLNKKLNENDVRKLFEVHGAIEECTVLRDQNGQSKGCAFVTFATKHAAISAIKVTLSQNKIMEGCTSPLVVKFADTQKEKEQKKIQQIQAAAGLLTPMTVQNLAAIAAMTQPSLSNAAAAAARATSPGSAQLTNTAALLWSDPNPMASAYMSTAAGLPQFGSASALSTSPLASVALSAAAAAAAGKQIEGPEGCNLFIYHLPQEFTDTDLASTFLPFGNVISAKVFIDKQTSLSKCFGFVSFDNPDSAQVAIKAMNGFQVGTKRLKVQLKKPKDSKPY
notes: also called Bru lacking most of the linker domain between RRMs 2 and 3; source: E. coli, purified (Ni-NTA); not shown: His6, N-terminal, kept
B3: His6::Bru 1–146 (isolated amino-terminal domain) (domain or fragment, Drosophila, UniProt O02374 1-146, looked up)
chain: MFTSRASFLANRRMIFDFSEKNNDIYLDAFGMSDKSSSATNSLPNSPIHSNNNNPSLLNNNNNNSNGTSSNNSLNVGNNNSNPSLGGTNSNALVSVGSNGIMSAAGLVNNNNNPCSANRNVVAMVDDDACFRLDTDATVTYGEKEP
notes: also called Bru amino-terminal domain; source: E. coli, purified (Ni-NTA); not shown: His6, N-terminal, kept

Tests used:
[1] = biological target: T1, GST::Cup577–947 (Drosophila); test: pull-down; GST::Bru, GST::Cup or GST immobilized on Glutathione Sepharose 4B from E. coli extract and washed; ~100 ng N-terminally His6-tagged Bru protein in 80 μl binding buffer (50mM Tris-Cl pH7.5, 150mM NaCl, 10% glycerol, 1mM DTT, 0.1% IGEPAL-CA-630), 2–3 hr at room temperature; Western blot with anti-His antibody; both purified
[2] = biological target: GST::Bru (full-length Bruno fused to GST) (Drosophila) (UniProt O02374); test: as above

Row | Molecule | binding [1] | binding [2]
1 | His6::Bru Δ1–146 Δ334–416 (from UniProt O02374 147-604) (domain or fragment) | no binding (tested: ~100 ng in 80 μl) | 
2 | His6::Bru Δ1–146 (from UniProt O02374 147-604) (domain or fragment) | binds | no binding (tested: ~100 ng in 80 μl)
3 | B1 | binds | 
4 | B2 | binds | 
5 | B3 | binds | 
